{"source": "the supplement of paper PMC3334620", "note": "The full ranking holds about 33,000 sequences; the median of “E-score (-0.5 to 0.5)” is about -0.032, and the highest 2% start at about 0.36. The list shows a part of the results."}
{"target": "T1, Sko1 (UniProt Q02100)", "T1 sequence": "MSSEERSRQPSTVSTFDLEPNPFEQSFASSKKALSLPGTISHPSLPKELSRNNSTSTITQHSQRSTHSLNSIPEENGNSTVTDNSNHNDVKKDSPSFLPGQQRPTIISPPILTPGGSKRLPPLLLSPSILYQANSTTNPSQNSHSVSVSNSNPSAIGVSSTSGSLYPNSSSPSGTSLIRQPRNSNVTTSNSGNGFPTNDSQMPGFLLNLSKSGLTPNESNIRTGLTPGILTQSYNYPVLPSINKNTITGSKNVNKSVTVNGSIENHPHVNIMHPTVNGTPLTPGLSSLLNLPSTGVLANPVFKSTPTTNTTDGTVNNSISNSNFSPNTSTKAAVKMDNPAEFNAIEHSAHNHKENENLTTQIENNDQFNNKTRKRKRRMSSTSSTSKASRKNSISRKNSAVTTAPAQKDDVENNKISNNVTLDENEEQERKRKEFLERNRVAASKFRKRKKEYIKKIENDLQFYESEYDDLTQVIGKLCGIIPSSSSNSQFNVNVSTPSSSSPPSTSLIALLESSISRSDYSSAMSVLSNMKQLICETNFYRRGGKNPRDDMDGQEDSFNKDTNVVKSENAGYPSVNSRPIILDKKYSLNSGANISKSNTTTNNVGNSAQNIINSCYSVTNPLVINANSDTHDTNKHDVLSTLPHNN", "assay": "PBM E-score (8-mer binding enrichment) (E-score (-0.5 to 0.5)); higher = stronger / more preferred TF binding; most listed sequences are background and not binding sites", "conditions": "protein concentration: 200 nM; construct: GST-full length", "summary_of_the_method": "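Full-length yeast transcription factors or their DNA-binding domains, GST-tagged and expressed with PURExpress, were applied at about 100-200 nM to universal all-10-mer Agilent arrays. These arrays had been made double-stranded by primer extension on fresh or once-stripped slides. Detection used fluorescent anti-GST, normalisation used masliner, and E-scores for ungapped eight-base words pooled with reverse complements came from the Universal PBM Analysis Suite.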"}
{"sequence": "GTTAAAAC", "PBM E-score": 0.0641}
{"sequence": "TTCTAAAA", "PBM E-score": 0.103}
{"sequence": "CGCGTTAC", "PBM E-score": 0.129}
{"sequence": "GACCTAGA", "PBM E-score": 0.0106}
{"sequence": "CATAACGG", "PBM E-score": -0.0211}
{"sequence": "CGTCCTAA", "PBM E-score": 0.0445}
{"sequence": "TACTCTGA", "PBM E-score": -0.0588}
{"sequence": "ATAATGCC", "PBM E-score": -0.0441}
{"sequence": "CATTTCCC", "PBM E-score": 0.0531}
{"sequence": "GCGTGCAC", "PBM E-score": 0.0342}
{"sequence": "ATGTTGGA", "PBM E-score": 0.0266}
{"sequence": "ATGTCTAC", "PBM E-score": 0.0729}
{"sequence": "AAAAAACT", "PBM E-score": 0.0679}
{"sequence": "GATACATC", "PBM E-score": 0.186}
{"sequence": "GGTTTTCA", "PBM E-score": 0.00133}
{"sequence": "GCTTTCCA", "PBM E-score": 0.00399}
{"sequence": "AGGGGAAC", "PBM E-score": -0.316}
{"sequence": "ACTTTAGC", "PBM E-score": 0.012}
{"sequence": "AAGATGCC", "PBM E-score": -0.245}
{"sequence": "CTCCAAAG", "PBM E-score": -0.0795}
{"sequence": "AGGTATGG", "PBM E-score": -0.309}
{"sequence": "CCTACTCG", "PBM E-score": -0.156}
{"sequence": "CATAAACC", "PBM E-score": 0.0461}
{"sequence": "AGGCCGAG", "PBM E-score": -0.2}
{"sequence": "TGGCTGAA", "PBM E-score": -0.124}
{"sequence": "ATGTCGGG", "PBM E-score": -0.0544}
{"sequence": "CAGATCGA", "PBM E-score": -0.0859}
{"sequence": "AACAACTG", "PBM E-score": 0.00424}
{"sequence": "GGAAATGA", "PBM E-score": 0.206}
{"sequence": "GATAAGGA", "PBM E-score": 0.0604}
{"sequence": "AACACTAA", "PBM E-score": 0.106}
{"sequence": "CGCTAGCA", "PBM E-score": -0.0892}
{"sequence": "AATCACGT", "PBM E-score": 0.429}
{"sequence": "GCACGAAC", "PBM E-score": 0.162}
{"sequence": "AGAGCACG", "PBM E-score": 0.0917}
{"sequence": "CCATCTAA", "PBM E-score": 0.0462}
{"sequence": "GGAATCAC", "PBM E-score": 0.0672}
{"sequence": "AAATTAAG", "PBM E-score": 0.0464}
{"sequence": "AGTTATTA", "PBM E-score": 0.221}
{"sequence": "CTATAACC", "PBM E-score": -0.0181}
{"sequence": "CCATGCGG", "PBM E-score": 0.0364}
{"sequence": "CTTCCTGC", "PBM E-score": -0.256}
{"sequence": "CAGTGCTA", "PBM E-score": -0.151}
{"sequence": "GTCATGCA", "PBM E-score": 0.336}
{"sequence": "CCCCCACG", "PBM E-score": -0.105}
{"sequence": "ACATCGGA", "PBM E-score": -0.0443}
{"sequence": "AGCCTGTG", "PBM E-score": -0.19}
{"sequence": "CACTGCCG", "PBM E-score": -0.16}
{"sequence": "GACTTTAA", "PBM E-score": -0.0659}
{"sequence": "ATCTCTAC", "PBM E-score": 0.106}
{"sequence": "AGACAGGG", "PBM E-score": -0.29}
{"sequence": "ACAACTTA", "PBM E-score": 0.0802}
{"sequence": "ACCTTGTG", "PBM E-score": -0.0718}
{"sequence": "ATAACAAA", "PBM E-score": 0.244}
{"sequence": "GTCCGTTA", "PBM E-score": 0.0181}
{"sequence": "CGAATAGC", "PBM E-score": 0.0587}
{"sequence": "AAAATACA", "PBM E-score": 0.11}
{"sequence": "GAAGGGCA", "PBM E-score": -0.17}
{"sequence": "CAGTCACC", "PBM E-score": -0.157}
{"sequence": "ACGGGTCT", "PBM E-score": -0.249}
{"sequence": "AGGATTTC", "PBM E-score": -0.174}
{"sequence": "AAGTAGCA", "PBM E-score": 0.038}
{"sequence": "CCTGTCAG", "PBM E-score": -0.285}
{"sequence": "ACTGCGCC", "PBM E-score": -0.24}
{"sequence": "ATGGAACC", "PBM E-score": -0.204}
{"sequence": "AAAATCAT", "PBM E-score": 0.174}
{"sequence": "ATGTCCTG", "PBM E-score": -0.139}
{"sequence": "AATGGAGT", "PBM E-score": -0.0467}
{"sequence": "ACCTAGCT", "PBM E-score": -0.271}
{"sequence": "AGGTCTTC", "PBM E-score": -0.263}
{"sequence": "GATCTTTA", "PBM E-score": 0.177}
{"sequence": "ATTGGATG", "PBM E-score": 0.0724}
{"sequence": "GACCACCA", "PBM E-score": -0.158}
{"sequence": "AATTTCTA", "PBM E-score": 0.242}
{"sequence": "GTGCCCCA", "PBM E-score": -0.178}
{"sequence": "AAACCCGG", "PBM E-score": -0.194}
{"sequence": "TCAGACAA", "PBM E-score": 0.0129}
{"sequence": "GGGCGATA", "PBM E-score": -0.259}
{"sequence": "CAGATAAA", "PBM E-score": 0.0135}
{"sequence": "CGGTCTGA", "PBM E-score": -0.167}
{"sequence": "AATATCGG", "PBM E-score": 0.0658}
{"sequence": "GTTGCCAA", "PBM E-score": -0.134}
{"sequence": "AATCGCAG", "PBM E-score": -0.0724}
{"sequence": "AGAAATGC", "PBM E-score": -0.0706}
{"sequence": "ACTATTAA", "PBM E-score": 0.115}
{"sequence": "ATTCTGGA", "PBM E-score": 0.204}
